Patent US20030187007A1, “Inhibitors of protein kinase for the treatment of disease” (priority 2001, published 2003)

System: NCI-H322M
Conditions: Homo sapiens, Non-Small Cell Lung Cancer, 72 hours
Procedure: Inhibition of cell growth was measured using cell viability assay, which is based on the use of a protein-binding dye, sulforhodamine B (SRB). The different cancer cell lines were seeded in 96-well plates at 2000 cells/100 μL per well in RPMI media with 10% FBS. Next day, the cells were treated with compounds as designed doses and incubated for 72 hours at 37° C. in the presence of 5% CO2. Then the cells were fixed with 10% ice cold trichloroacetic acid (TCA) and incubated for an hour at 4° C. After washing the plates with tap water 4-5 times, the plates were dried in the air. Then the cells were stained with 0.4% SRB for 10 minutes, washed with 1% acetic acid 4-5 times and dried in the air. After adding 100 μL of 10 mM unbeffered Tris base to solubilize bound stain, optical densities were measured at 574 nm using Victor™ (1420 Multi-label Counter, Wallace) for the analysis. The values of IC50 (the concentration of 50% growth inhibition) were calculated from the dose-response curve fitting.

Nc1nccc(-c2cc(-c3ccc(O)cc3)ccc2O)n1 [3-(2-Amino-pyrimidin-4-yl)-biphenyl-4,4′-diol]
GI50: 316 nM | CC50 (read-out: Log (LC50) (the source's name) (converted)): > 100000 nM
